Measurements from PubChem BioAssay AID463173 (ICCB-Longwood Screening Facility, Harvard Medical School, 2010).
The whole screen tested about 52,000 compounds, of which about 4,300 (8.3%) were called active. No stated cut-off is given here; in the data, active means survival mostly below about 52% (no sharp cut-off); inactive means mostly above about 56%. This is one part of the list.

tested on: DeltatarO mutant; assay: S. aureus survival, RN4220 and DeltatarO strains – OD600, teichoic acid synthesis inhibitors, primary screen (AID 463173); conditions: S. aureus RN4220 wild type/DeltatarO growth, OD600, 18 h, active compounds read low, screened at 18.75 µg/mL (by protocol)

Compound	survival
O=C(NCCc1ccccc1)C(=O)NCC(c1cccnc1)N1CCN(c2ccccc2)CC1 (stereo not given)	inactive: 51%
O=C(COc1ccc(S(=O)(=O)N2CCCC2)cc1)N1CCCC1	inactive: 91%
N#Cc1c(/N=C/c2cccnc2)sc2c1CCC2	inactive: 100%
CC1(C)CC(=O)C(C=NC2CC(C)(C)NC(C)(C)C2)=C(O)C1	inactive: 92%
CC(=O)c1ccc(N2CCN(S(=O)(=O)c3cc(-c4onc(C)c4C)ccc3C)CC2)cc1	inactive: 84%
Cc1cccc2c1-c1sc(C(=O)N3CCN(c4ccc(F)cc4)CC3)cc1CO2	inactive: 71%
Cc1ccccc1CNC(=O)CCCn1c(=O)c2cccn2c2ccccc21	inactive: 68%
O=C(Cn1cc(S(=O)(=O)N2CCN(c3ccccc3F)CC2)c2ccccc2c1=O)Nc1cccc(C(F)(F)F)c1	inactive: 78%
CC12CC(C)(C)C(C#N)(C(N)=C1C#N)C(=C(C#N)C#N)N2 (stereo not given)	inactive: 86%
O=C(COCc1nc2ccccc2c(=O)[nH]1)NCC1CCCCC1	inactive: 52%
CC(=O)Nc1ccc(C(=O)N2CCCC2)cc1	inactive: 67%
Cc1nc2ccn(Cc3cccnc3)c(=O)c2cc1C(=O)NCc1ccc(Cl)cc1	inactive: 69%
COc1ccccc1CNC(=O)CCCn1nc(C)c2c(C)n(-c3ccc(C)cc3)nc2c1=O	inactive: 71%
CCOc1ccc(CNC(=O)CCn2c(=O)c3cccn3c3cccnc32)cc1	inactive: 85%
Cc1ccc(/C(C#N)=C\c2cccs2)cc1	inactive: 113%
O=C(CSc1nc(=O)n(Cc2ccco2)c2c1CCC2)NCc1ccccc1Cl	inactive: 94%
CCOc1ccc(N2CC(NC(=O)c3ccc(S(=O)(=O)N4CCOCC4)cc3)CC2=O)cc1 (stereo not given)	active: 47%
N#Cc1ccc(NC(=O)COCc2cc(-c3ccc4c(c3)OCO4)on2)cc1	inactive: 94%
Cc1cc(N2CCN(C)CC2)nc2ccc(NC(=O)Nc3ccc(Cl)cc3)cc12	inactive: 72%
COC(=O)c1scc(-c2ccc(C)cc2)c1S(=O)(=O)Nc1ccc(OC(F)(F)F)cc1	inactive: 96%
CC(C)N(C(=O)CSc1nnnn1Cc1ccccc1)C(C)C	inactive: 88%
COCCNC(=O)CN1C(=O)COc2ccc(S(=O)(=O)N3CCOCC3)cc21	inactive: 88%
C=Cc1ccc(CSc2nc(-c3ccccc3C)nc3c2Cc2c(CO)cnc(C)c2O3)cc1	inactive: 58%

Compound	survival
CCC1CCCCN1S(=O)(=O)c1ccc2c(c1)CCCN2C(C)=O (stereo not given)	inactive: 70%
CCn1cc(C(=O)OCC(=O)Nc2cccc(Cl)c2C)c(=O)c2ccc(C)nc21	inactive: 66%
CCc1ccccc1N(C)C(=O)Nc1cn(CC(C)C)c(=O)c2ccccc12	inactive: 113%
COc1ccccc1CNC(=O)C(=O)NCC(c1cccnc1)N1CCN(c2ccccc2)CC1 (stereo not given)	inactive: 57%
Cc1noc(C)c1S(=O)(=O)N(CC(=O)NCc1ccccc1)c1ccc(C(C)C)cc1	inactive: 72%
O=C(COCc1cc(-c2ccco2)on1)Nc1cc(Cl)ccc1O	active: 0%
COc1ccc(-c2nc(SCC(=O)NC3CCCC3)c(-c3ccc(F)cc3)[nH]2)cc1OC	inactive: 60%
CC(Oc1ccccc1)C(=O)NCc1ccccn1 (stereo not given)	inactive: 89%
CCN1C(=O)C2C(c3ccccc3C)NC(Cc3ccc(O)cc3)(C(=O)OC)C2C1=O (stereo not given)	inactive: 77%
COc1ccc(C)cc1NC(=O)Cn1nc(N2CCN(c3ccccc3OC)CC2)ccc1=O	inactive: 62%
COc1ccccc1Cc1nc2ccccc2nc1SCC(=O)NCc1ccc(C)cc1	inactive: 80%
CCN(CC)c1nc(Nc2ccc(Cl)cc2)nc(OCC#N)n1	inactive: 102%
COc1ccc(C(=O)N2CCN(C(=O)COc3ccccc3)CC2)cc1OC	inactive: 66%
O=C(c1ccc2c(c1)N(Cc1ccccc1)C(=O)c1ccccc1S2(=O)=O)N1CCOCC1	inactive: 88%
COc1ccc(NC(=O)C(NC(=O)/C=C\c2ccc3c(c2)OCO3)c2ccc(C)cc2)cc1 (stereo not given)	inactive: 66%
CCc1ccc(-n2c(N3CCN(c4ccc(F)cc4)CC3)nc3ccccc3c2=O)cc1	inactive: 83%
CC(C)c1nc2ccccc2c(=O)[nH]1	inactive: 91%
O=C(Nc1ccc2oc(-c3cccnc3)nc2c1)c1ccccc1F	inactive: 86%
CC(=O)N1CCCc2cc(S(=O)(=O)Nc3ccc(Cl)cc3F)ccc21	inactive: 75%
COCCNC(=O)CCn1nc(-c2ccc(Cl)cc2)c2ccccc2c1=O	inactive: 77%
COc1ccc(CC(=O)N2CCc3c([nH]c4ccccc34)C2c2ccc(SC)cc2)cc1 (stereo not given)	inactive: 78%
CC1CCN(C(c2ccc(F)cc2)c2sc3nc(-c4ccco4)nn3c2O)CC1 (stereo not given)	inactive: 75%
Cc1cccc(C(=O)N2CCc3cc(CNC(=O)c4ccco4)ccc32)c1	inactive: 66%

Compound	survival
CCOCCc1nn2c(=O)cc(COC(=O)c3ccc(NC(=O)c4cccs4)cc3)nc2s1	inactive: 112%
CCCNC(=O)c1ccc(Cn2c(SCC(=O)NC(C)C)nc3ccccc3c2=O)cc1	inactive: 102%
COc1ccccc1CNc1nccn(-c2ccc(F)cc2)c1=O	inactive: 87%
CCCn1c2ccccc2c2cnn(CC(=O)NCC3CCN(Cc4ccccc4C)CC3)c(=O)c21	inactive: 55%
COc1ccc(C(=O)Nc2nc(-c3ccc(Br)cc3)ns2)cc1	active: 58%
Cc1csc2nc(COc3ccc(NC(=O)c4ccccc4F)cc3)cc(=O)n12	inactive: 72%
COc1ccc(-c2nc3n(n2)C(c2ccc(O)cc2)C(C(=O)Nc2cccnc2)=C(C)N3)cc1OC (stereo not given)	inactive: 86%
Cc1ccc2c(c1)c1c3n2CCN=C3CCC1	inactive: 106%
CCCCN(C)S(=O)(=O)c1ccc(C(=O)Nc2sc3c(c2C(=O)OCC)CCN(C(C)C)C3)cc1	inactive: 73%
CCOC(=O)C1CCN(C(=O)C2CCN(S(=O)(=O)c3c(C)noc3/C=C/c3ccc(C)cc3)CC2)CC1	inactive: 124%
COc1cc(OC)cc(C(=O)Nc2ccc3c(c2)CCCN3C(=O)c2cccs2)c1	inactive: 112%
CCOC(=O)c1[nH]c(C)c(CCC(=O)N2CCN(c3ccc(OC)cc3)CC2)c1C	inactive: 84%
COc1ccc(NC(=O)c2cccc3c(=O)c4c([nH]c23)CCCC4)cc1	inactive: 64%
O=C(O)CCC(=O)N1CCc2cc(S(=O)(=O)NCc3ccc(F)cc3)ccc21	inactive: 97%
CCCC1=Nc2cc(C(=O)NCc3ccccc3)ccc2Sc2ccccc21	inactive: 72%
Cc1ccc(C(C)C)c(OCC(=O)Nc2ccc3c(c2)nc(CCNC(=O)c2ccco2)n3C)c1	inactive: 54%
COc1ccc(NC(=O)Cn2c(=O)c3cccn3c3ccccc32)cc1	inactive: 49%
Cn1c(=O)c2c(-c3ccccc3)n3c(c2n(C)c1=O)C(c1ccc([N+](=O)[O-])cc1)Nc1ccccc1-3 (stereo not given)	active: 34%
COc1ccc(S(=O)(=O)NCCc2sc(-c3cccnc3)nc2C)cc1	inactive: 101%
Cc1ccc(-n2ncc3c(Nc4ccc5c(c4)OCCO5)ncnc32)cc1Cl	inactive: 117%
CC(=O)Nc1ccc(OC(=O)N2CCCC2)cc1	inactive: 86%
O=c1[nH]c2ccccc2c(O)c1-c1nc2ccccc2c(=O)[nH]1	inactive: 100%
Cc1ccc(C(=O)c2oc3ccccc3c2NC(=O)c2cc(-c3ccccc3)on2)cc1	inactive: 77%

Compound	survival
CCOCCCN1C(=O)CN(C2CCCCCC2)C(=O)C1c1ccc(OCC)c(OC)c1 (stereo not given)	inactive: 122%
CCOC(=O)c1c(NC(=O)c2ccc(S(=O)(=O)N3CCCC(C)C3)cc2)sc2c1CC(C)(C)NC2(C)C (stereo not given)	inactive: 74%
CC1CC(C)CN(C(=O)c2ccc(Cl)cc2)C1 (stereo not given)	inactive: 96%
COc1ccc(Cl)c2sc(NC(=O)c3ccc(S(=O)(=O)N4CCCC4)cc3)nc12	inactive: 98%
COc1ccccc1NC(=O)CSCc1cc(=O)c2cccc(Cl)c2[nH]1	inactive: 94%
COc1ccc(OC)c(C2CC(=O)Nc3c2c(=O)n(C)c2ncnn32)c1 (stereo not given)	inactive: 166%
CCOC(=O)c1cc(NC(=O)c2ccccc2)c(=O)n2c1oc1ccc(Cl)cc12	inactive: 136%
CCOc1ccccc1CNS(=O)(=O)c1ccc(-c2cnc(C3CC3)o2)cc1	inactive: 71%
Cc1ccc(-n2nc(CO)c(C(=O)NCc3cccnc3)n2)cc1C	inactive: 110%
CCN(CC)C(NC(=O)c1ccccc1)C(=O)c1ccccc1 (stereo not given)	inactive: 85%
COc1ccc(NC(=O)CSC2=Nc3ccccc3C3=NC(CCC(=O)NC4CCCCC4)C(=O)N23)cc1Cl (stereo not given)	inactive: 81%
COc1ccc(-c2noc(-c3nnn(-c4ccc(C)cc4C)c3C)n2)cc1	inactive: 117%
COc1ccc(S(=O)(=O)c2cn(C)c3cc(N4CCCCCC4)c(F)cc3c2=O)cc1	inactive: 86%
O=C(Nc1cc(F)ccc1F)C1CCN(C(=O)c2cnn(-c3ccccc3)c2-n2cccc2)CC1	inactive: 69%
Cc1ccc(NC(=O)CSc2nncn2C)c(C)c1	inactive: 75%
Cc1ccnc(NC(c2cccc(O)c2)c2ccc3ccc(C)nc3c2O)c1 (stereo not given)	inactive: 68%
Cc1ccc(CNC(=O)c2cc3sc(Cl)cc3n2C)cc1	inactive: 80%
COc1ccc(CN(CCN)C2CC(C)N(C)CC2C)cc1 (stereo not given)	inactive: 99%
O=C(CSC1=Nc2ccccc2C2=NC(Cc3ccccc3)C(=O)N12)Nc1cccc(Cl)c1 (stereo not given)	inactive: 67%
CCc1ccc2occ(CC(=O)Nc3c(C(=O)c4ccccc4)oc4ccccc34)c2c1	inactive: 95%
CCN1C(=O)c2ccccc2Sc2ccc(NC(=O)Nc3cc(C)cc(C)c3)cc21	inactive: 67%
